# Measurements taken from a collection of fitness landscapes (doi:10.1126/science.1257360).
# This is one part of the list.
# B1: PhoQ; a variant is named by its letters at X, in order, P23837 (parent)
# chain: MKKLLRLFFPLSLRVRFLLATAAVVLVLSLAYGMVALIGYSVSFDKTTFRLLRGESNLFYTLAKWENNKLHVELPENIDKQSPTMTLIYDENGQLLWAQRDVPWLMKMIQPDWLKSNGFHEIEADVNDTSLLLSGDHSIQQQLQEVREDDDDAEMTHSVAVNVYPATSRMPKLTIVVVDTIPVELKSSYMVWSWFIYVLSANLLLVIPLLWVAAWWSLRPIEALAKEVRELEEHNRELLNPATTRELTSLVRNLNRLLKSERERYDKYRTTLTDLTHSLKTPLXXLQXXLRSLRSEKMSVSDAEPVMLEQISRISQQIGYYLHRASMRGGTLLSRELHPVAPLLDNLTSALNKVYQRKGVNISLDISPEISFVGEQNDFVEVMGNVLDNACKYCLEFVEISARQTDEHLYIVVEDDGPGIPLSKREVIFDRGQRVDTLRPGQGVGLAVAREITEQYEGKIVAGESMLGGARMEVIFGRQHSAPKDE
# Variants of: B1
# Assay: enrichment ratio after two sorts for PhoP signalling (ratio (wild type AVST 3.29)); higher = more functional
# Details: with PhoP (E. coli)
row,Variant,enrichment ratio
1,IFIW,≤ 0.25
2,KVNN,≤ 0.25
3,WLGL,≤ 0.25
4,HEVE,≤ 0.25
5,YECR,≤ 0.25
6,GFCD,≤ 0.25
7,FGKS,≤ 0.25
8,KGEC,≤ 0.25
9,FIQT,≤ 0.25
10,HGTG,≤ 0.25
11,LDEL,≤ 0.25
12,YTQD,≤ 0.25
13,NNMP,≤ 0.25
14,WPWE,≤ 0.25
15,SYKE,≤ 0.25
16,IRFN,≤ 0.25
17,RVRE,≤ 0.25
18,HLGP,≤ 0.25
19,WERW,≤ 0.25
20,ERRT,≤ 0.25
21,GGIK,≤ 0.25
22,YTLK,≤ 0.25
23,TCNS,16.1
24,EYHV,≤ 0.25

row,Variant,enrichment ratio
1,FMDG,≤ 0.25
2,VWCV,≤ 0.25
3,ILVA,≤ 0.25
4,GPAG,≤ 0.25
5,NYVL,≤ 0.25
6,NPSY,≤ 0.25
7,DCES,≤ 0.25
8,AENY,5.26
9,QIFP,≤ 0.25
10,FQYH,≤ 0.25
11,APGG,≤ 0.25
12,FVLD,≤ 0.25
13,NIAA,≤ 0.25
14,LVFC,≤ 0.25
15,IHAN,≤ 0.25
16,WTQY,≤ 0.25
17,IHHQ,≤ 0.25
18,HMPA,≤ 0.25
19,HTVL,0.699
20,PPYD,≤ 0.25
21,YEAE,≤ 0.25
22,ISWG,≤ 0.25
23,VTAK,≤ 0.25
24,GMRD,≤ 0.25

row,Variant,enrichment ratio
1,RRCK,≤ 0.25
2,AGTG,4.46
3,IMSH,≤ 0.25
4,ETWH,≤ 0.25
5,QGIQ,≤ 0.25
6,IVRQ,≤ 0.25
7,HWHA,≤ 0.25
8,WSNH,≤ 0.25
9,EEDI,≤ 0.25
10,KDTY,≤ 0.25
11,QFHN,≤ 0.25
12,KFDE,≤ 0.25
13,GKYR,≤ 0.25
14,SNRC,≤ 0.25
15,NCDM,≤ 0.25
16,PANN,≤ 0.25
17,DWSH,≤ 0.25
18,IHQP,≤ 0.25
19,LGSY,≤ 0.25
20,KVVC,≤ 0.25
21,FNYA,≤ 0.25
22,QDMM,≤ 0.25
23,YRLF,≤ 0.25
24,IRMR,≤ 0.25

row,Variant,enrichment ratio
1,DANH,≤ 0.25
2,QHTS,≤ 0.25
3,QMQK,≤ 0.25
4,GRGM,≤ 0.25
5,YCCG,≤ 0.25
6,MSLG,4.62
7,PQGD,≤ 0.25
8,TIPD,≤ 0.25
9,HYCK,≤ 0.25
10,SHMG,17.8
11,IPLV,≤ 0.25
12,VEDS,0.659
13,HNLQ,≤ 0.25
14,RKGH,≤ 0.25
15,PASG,≤ 0.25
16,KMIA,≤ 0.25
17,VMLP,≤ 0.25
18,MERN,≤ 0.25
19,WKKS,≤ 0.25
20,DMRY,≤ 0.25
21,RIDR,≤ 0.25
22,FHDH,≤ 0.25
23,NQCA,≤ 0.25
24,QKTG,≤ 0.25

row,Variant,enrichment ratio
1,GWCV,≤ 0.25
2,PASD,0.521
3,KLDC,≤ 0.25
4,FTAF,≤ 0.25
5,TCIG,≤ 0.25
6,MTFM,17.1
7,NHML,≤ 0.25
8,NGYQ,≤ 0.25
9,DQVV,≤ 0.25
10,YHLH,≤ 0.25
11,RCVT,≤ 0.25
12,WIHP,≤ 0.25
13,MMQS,≤ 0.25
14,PRVI,≤ 0.25
15,KVFL,≤ 0.25
16,KEHC,≤ 0.25
17,KRDP,≤ 0.25
18,DIER,≤ 0.25
19,EMAL,≤ 0.25
20,ATGG,5.79
21,IKEP,≤ 0.25
22,ELID,≤ 0.25
23,WDLH,≤ 0.25
24,QTLT,≤ 0.25

row,Variant,enrichment ratio
1,MHMS,≤ 0.25
2,LINW,≤ 0.25
3,SELV,19.5
4,PTKS,≤ 0.25
5,PDTN,≤ 0.25
6,LHWY,≤ 0.25
7,VWYH,≤ 0.25
8,KPTV,≤ 0.25
9,QFKR,≤ 0.25
10,PIRQ,≤ 0.25
11,KVGW,≤ 0.25
12,VSVH,≤ 0.25
13,DSAQ,≤ 0.25
14,KRAF,≤ 0.25
15,GRGD,≤ 0.25
16,LGWG,≤ 0.25
17,LCLP,≤ 0.25
18,WSIL,≤ 0.25
19,QSMW,≤ 0.25
20,YNSR,≤ 0.25
21,MQMC,≤ 0.25
22,LDDG,≤ 0.25
23,AYPM,≤ 0.25
24,IFGC,≤ 0.25

row,Variant,enrichment ratio
1,GSYP,≤ 0.25
2,KHNP,≤ 0.25
3,NCLR,≤ 0.25
4,THQF,5.14
5,RRIC,≤ 0.25
6,SVRG,≤ 0.25
7,FHAL,≤ 0.25
8,YSKV,≤ 0.25
9,KNIH,≤ 0.25
10,NIVI,≤ 0.25
11,VDEA,≤ 0.25
12,RNRT,≤ 0.25
13,ISAM,0.753
14,TARN,≤ 0.25
15,ENFR,≤ 0.25
16,YSTE,≤ 0.25
17,SRPC,≤ 0.25
18,YKMK,≤ 0.25
19,PQTW,≤ 0.25
20,MSDR,≤ 0.25
21,MPNC,≤ 0.25
22,PMNA,≤ 0.25
23,ACAW,7.33
24,GTRK,≤ 0.25

row,Variant,enrichment ratio
1,LIFF,≤ 0.25
2,TAQM,2.23
3,YIGW,0.279
4,WSNC,≤ 0.25
5,IWGV,≤ 0.25
6,HPKM,≤ 0.25
7,QQAK,≤ 0.25
8,FHWQ,≤ 0.25
9,AIGK,≤ 0.25
10,VRKP,≤ 0.25
11,PMHC,≤ 0.25
12,TDKS,≤ 0.25
13,AIFW,≤ 0.25
14,QSYL,13.9
15,TVSV,14.9
16,AKWY,≤ 0.25
17,DCTN,≤ 0.25
18,YHPS,≤ 0.25
19,EMHT,≤ 0.25
20,EMPM,≤ 0.25
21,VVCV,≤ 0.25
22,WELA,≤ 0.25
23,RTME,≤ 0.25
24,VVRQ,≤ 0.25

row,Variant,enrichment ratio
1,QHNQ,5.11
2,EISF,≤ 0.25
3,RFDH,≤ 0.25
4,ADHA,≤ 0.25
5,IVTM,≤ 0.25
6,SAQG,5.94
7,YSRT,≤ 0.25
8,DLYD,≤ 0.25
9,QFCE,≤ 0.25
10,SQPN,≤ 0.25
11,TRFW,≤ 0.25
12,RLFM,≤ 0.25
13,NRYI,≤ 0.25
14,KCES,≤ 0.25
15,PMYY,≤ 0.25
16,FQNV,≤ 0.25
17,EKTT,≤ 0.25
18,TKEA,≤ 0.25
19,QTIH,≤ 0.25
20,SNNC,18.6
21,HIGI,≤ 0.25
22,RKWT,≤ 0.25
23,DDYW,≤ 0.25
24,IKYQ,≤ 0.25

row,Variant,enrichment ratio
1,RQYR,≤ 0.25
2,IPFV,≤ 0.25
3,WFVM,≤ 0.25
4,QKAH,≤ 0.25
5,PKRC,≤ 0.25
6,YTYM,≤ 0.25
7,SSHS,≤ 0.25
8,MVPH,≤ 0.25
9,GKLE,≤ 0.25
10,IIDK,≤ 0.25
11,RNCE,≤ 0.25
12,FIPF,≤ 0.25
13,PPTF,≤ 0.25
14,IFDN,≤ 0.25
15,WDSV,≤ 0.25
16,NYPS,≤ 0.25
17,NKRP,≤ 0.25
18,HWKP,≤ 0.25
19,HQIH,≤ 0.25
20,KRRV,≤ 0.25
21,DHSM,≤ 0.25
22,NGDC,≤ 0.25
23,QAKI,≤ 0.25
24,SYYK,≤ 0.25

row,Variant,enrichment ratio
1,KAAE,≤ 0.25
2,RCHA,≤ 0.25
3,AYTK,≤ 0.25
4,YVGK,≤ 0.25
5,AVAF,8.24
6,VAID,≤ 0.25
7,LFHT,≤ 0.25
8,ICLH,≤ 0.25
9,HLCL,1.19
10,TASM,13.4
11,NSTF,≤ 0.25
12,ELQV,≤ 0.25
13,FYQG,≤ 0.25
14,FMVV,≤ 0.25
15,GGSN,≤ 0.25
16,ICKS,≤ 0.25
17,EEYD,≤ 0.25
18,TDKG,≤ 0.25
19,LIVM,≤ 0.25
20,NFVK,≤ 0.25
21,PAIA,≤ 0.25
22,QMDT,≤ 0.25
23,SRNS,≤ 0.25
24,YNFE,≤ 0.25

row,Variant,enrichment ratio
1,NYIW,≤ 0.25
2,NHAY,≤ 0.25
3,VMEK,≤ 0.25
4,GKPP,≤ 0.25
5,HDQK,≤ 0.25
6,APNN,≤ 0.25
7,LDKE,1.03
8,PLNP,≤ 0.25
9,YTLP,≤ 0.25
10,ETRV,≤ 0.25
11,DGKY,≤ 0.25
12,NYKL,≤ 0.25
13,WINL,≤ 0.25
14,ERKF,≤ 0.25
15,NLQH,≤ 0.25
16,YPMA,≤ 0.25
17,AWLC,≤ 0.25
18,NNTI,1.55
19,QSHY,8.12
20,YVCM,≤ 0.25
21,FGNG,≤ 0.25
22,PFMT,≤ 0.25
23,MLYA,≤ 0.25
24,FIAA,≤ 0.25

row,Variant,enrichment ratio
1,KVKQ,≤ 0.25
2,GFSN,≤ 0.25
3,HKFA,≤ 0.25
4,QQPH,≤ 0.25
5,WHHK,≤ 0.25
6,AAYL,≤ 0.25
7,VPDH,≤ 0.25
8,ESNT,≤ 0.25
9,GMAR,≤ 0.25
10,KYRF,≤ 0.25
11,YGVP,≤ 0.25
12,VYIS,≤ 0.25
13,LHRN,≤ 0.25
14,IAYF,≤ 0.25
15,WEHV,≤ 0.25
16,CFYP,≤ 0.25
17,ILIN,≤ 0.25
18,SCMT,9.91
